{"source": "PubChem BioAssay AID624417", "about": "(National Center for Advancing Translational Sciences (NCATS), 2012)", "note": "Out of some 410,000 compounds screened, about 6,400 (1.6%) were called active. Inconclusive results, whose numbers are uncertain, are shown with a selection of clear calls. Calls come from the whole dose curve; as a rule, active = well fitted inhibition curve with a large enough effect; inconclusive = small, poorly fitted or top-dose-only effect; inactive = no such curve, though single readings can be large or run the other way. No potency is given beside an inconclusive call; the fits are too rough. % is set by controls: 0 for no effect and ±100 for the full control effect; potency is the fitted concentration of half-maximal effect; tags give direction and shape of the fitted curve.", "data": [{"molecular_target": "Glucagon-like peptide 1 receptor (Homo sapiens) (UniProt P43220)", "sequence (P43220 whole entry, looked up)": "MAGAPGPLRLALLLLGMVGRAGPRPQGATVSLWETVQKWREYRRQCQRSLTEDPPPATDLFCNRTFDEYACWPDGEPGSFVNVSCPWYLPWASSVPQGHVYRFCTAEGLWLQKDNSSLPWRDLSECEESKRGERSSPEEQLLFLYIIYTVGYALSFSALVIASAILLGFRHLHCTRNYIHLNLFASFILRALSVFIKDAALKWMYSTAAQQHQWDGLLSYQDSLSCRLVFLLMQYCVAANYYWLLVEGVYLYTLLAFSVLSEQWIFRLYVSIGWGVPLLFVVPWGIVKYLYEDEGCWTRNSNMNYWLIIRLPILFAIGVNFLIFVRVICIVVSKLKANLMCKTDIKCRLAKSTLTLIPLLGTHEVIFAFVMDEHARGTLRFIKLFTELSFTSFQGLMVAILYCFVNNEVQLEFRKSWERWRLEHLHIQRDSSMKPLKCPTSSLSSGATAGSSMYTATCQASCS", "assay": "qHTS of GLP-1 Receptor Inverse Agonists (Inhibition Mode); note: nearly all actives have a fitted effect of over 55% in size", "conditions": "HEK293 GLP-1R CRE-luciferase, luminescence, 24 h, GLP-1R form is constitutively active; activity change, negative = inhibition: at 38.3 µM (top of the series) unless noted", "procedure,_shortened": "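Cells are plated, allowed 12 hours at 37 deg C, then treated with compounds for 24 hr before luciferase detection reagent is added and luminescence is read after 12 min at room temperature. The HEK293 line carries constitutively active GLP-1R with a cAMP-responsive reporter.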", "values": [{"smiles": "CCOC(=O)N1CCc2c(sc3c2c(=O)n(-c2ccc(Cl)cc2)c(=O)n3Cc2cccc(OC)c2)C1", "Potency": "inactive"}, {"smiles": "COc1cc(N)c(Cl)cc1C(=O)OCC(=O)NC(=O)NCc1ccco1", "Potency": "inactive"}, {"smiles": "CCOc1ccccc1C(=O)Nc1cc(Cl)ccc1O", "Potency": "active: 7.08 µM"}, {"smiles": "CSc1ccc(C#N)cc1NC(=O)c1cccc(Cl)c1", "Potency": "inconclusive [inhibitor, single point]"}, {"smiles": "CCOc1ccc(CN(C(=O)c2nc(SC)ncc2Cl)C2CCS(=O)(=O)C2)cc1", "note": "(configuration not stated)", "Potency": "inactive"}, {"smiles": "CC1CCCCN1CCCNC(=O)c1ccc2c(c1)sc1nc(-c3ccc(F)cc3)cn12", "note": "(configuration not stated)", "Potency": "inconclusive [inhibitor, partial curve, poor fit]"}, {"smiles": "CCc1ccc(Oc2c(C(F)(F)F)oc3c(CN4CCN(CC)CC4)c(O)ccc3c2=O)cc1", "Potency": "inconclusive [inhibitor, partial curve]"}, {"smiles": "N#Cc1c2nc3ccccc3nc2n2cc(NC(=O)c3ccc(F)cc3)ccc12", "Potency": "inactive"}, {"smiles": "Nc1ccc(S(=O)(=O)N2CCC(Cc3ccccc3)CC2)cc1", "Potency": "inconclusive [inhibitor, full curve, poor fit]"}, {"smiles": "COC(=O)Cc1c(C)c2ccc(OCC(=O)N3CCC(C)CC3)c(C)c2oc1=O", "Potency": "inactive"}, {"smiles": "CCOC(=O)N1CCc2c(sc(NC(=O)C3COc4ccccc4O3)c2C(N)=O)C1", "note": "(configuration not stated)", "Potency": "inconclusive [inhibitor, partial curve, poor fit]"}, {"smiles": "CCc1noc(C)c1C(=O)OCC(=O)Nc1ccc2c(c1)OCO2", "Potency": "inactive"}, {"smiles": "COc1ccc(-c2nc(N3CCN(C)CC3)sc2-c2ccc(OC)cc2)cc1", "Potency": "inconclusive [inhibitor, partial curve, poor fit]"}, {"smiles": "N#C/C(=C\\c1cc([N+](=O)[O-])c(N2CCOCC2)cc1N1CCOCC1)c1nc2ccccc2[nH]1", "Potency": "inactive"}, {"smiles": "COc1ccc(NC(=O)c2oc3ccccc3c2NC(=O)C(C)(C)C)cc1", "Potency": "inconclusive [inhibitor, single point]"}, {"smiles": "COc1ccc(C(=O)N2CCCCC2c2cc(C(=O)NCc3ccc(Cl)c(Cl)c3)no2)cc1", "note": "(configuration not stated)", "Potency": "inconclusive [inhibitor, partial curve, poor fit]"}, {"smiles": "CCO[C@@H]1OC(C(=O)NCc2nc3ccccc3[nH]2)=C[C@H](c2csc3ccccc23)[C@H]1CCCO", "Potency": "inconclusive [inhibitor, partial curve, poor fit]"}, {"smiles": "CC1(C)Cc2c(C#N)c(NCC3CCCO3)nc(-c3ccco3)c2CO1", "note": "(configuration not stated)", "Potency": "inconclusive [inhibitor, partial curve, poor fit]"}, {"smiles": "COc1ccc(/C=C/c2cc(C(=O)O)c3ccccc3n2)cc1", "Potency": "inconclusive [inhibitor, full curve, poor fit]"}, {"smiles": "CN1CCC[C@@H]1CCO[C@](C)(c1ccccc1)c1ccc(Cl)cc1", "Potency": "inconclusive [inhibitor, partial curve, poor fit]"}, {"smiles": "COc1ccc(N(C)S(=O)(=O)c2ccc3c(c2)NC(=O)CC(=O)N3)c(OC)c1", "Potency": "inactive"}, {"smiles": "Cc1cc(C(=O)Cn2nnc(-c3ccc(Cl)cc3)n2)c(C)n1CC1CCCO1", "note": "(configuration not stated)", "Potency": "inconclusive [inhibitor, single point]"}, {"smiles": "CCOc1ccccc1CNC(=O)c1cn(-c2ccc(OC)cc2)c(=O)c2ccccc12", "Potency": "inactive"}, {"smiles": "CC1C(=O)N(Cc2cn(CCC3OCCCO3)nn2)CCS(=O)(=O)N1Cc1ccc(-c2ccncc2)cc1", "note": "(configuration not stated)", "Potency": "inactive"}, {"smiles": "CC/C(=N\\Nc1ccnc2cc(Cl)ccc12)c1ccc(O)cc1", "Potency": "inconclusive [inhibitor, partial curve, poor fit]"}, {"smiles": "Cc1cc(Br)cn2c(Cc3ccsc3)c(-c3ccccc3)nc12", "Potency": "inconclusive [inhibitor, single point]"}, {"smiles": "Cc1ccc(OCCNS(=O)(=O)c2ccc(N3CCCC3=O)cc2)cc1C", "Potency": "inactive"}, {"smiles": "COc1ccccc1CNc1nc(Nc2ccccc2-n2cccn2)c2sccc2n1", "Potency": "active: 3.16 µM"}, {"smiles": "CCN(CC)S(=O)(=O)c1cccc(C(=O)NC(C)C(c2cccs2)N2CCCC2)c1", "note": "(configuration not stated)", "Potency": "inconclusive [inhibitor, partial curve]"}, {"smiles": "N#Cc1ccc2sn(-c3ccccc3)c(=O)c2c1", "Potency": "inconclusive [inhibitor, single point]"}, {"smiles": "NC(=O)C(c1ccccc1)c1ccc(C(=O)c2ccccc2)cc1", "note": "(configuration not stated)", "Potency": "inconclusive [inhibitor, single point]"}, {"smiles": "CCOc1ccccc1N1CCN(C(=O)CC(C)(C)C)CC1", "Potency": "inactive"}, {"smiles": "O=C(CN1C(=O)NC(Cc2c[nH]c3ccccc23)C1=O)Nc1ccc(F)c(F)c1F", "note": "(configuration not stated)", "Potency": "inconclusive [inhibitor, partial curve, poor fit]"}, {"smiles": "COc1cc(NC(=O)Nc2nnc(N3CCCCCC3)s2)cc(OC)c1", "Potency": "inactive"}, {"smiles": "O=C(N/N=C/c1ccc(Cl)cc1Cl)c1n[nH]c2c1CCCC2", "Potency": "inconclusive [inhibitor, full curve]"}, {"smiles": "Cc1c(C(=O)Nc2ccc(S(=O)(=O)N(C)C3CCN(C)CC3)cc2)oc2c(Cl)cccc12", "Potency": "inconclusive [inhibitor, partial curve, poor fit]"}, {"smiles": "O=c1cc(C(F)(F)F)[nH]c2c(C(F)(F)F)cccc12", "Potency": "inconclusive [inhibitor, full curve]"}, {"smiles": "O=C(Cn1cc2c(n1)CCCCC2)NCc1ccccc1", "Potency": "inconclusive [inhibitor, single point]"}, {"smiles": "C/C(=N\\Nc1ccc(C)c(Cl)c1)c1cccnc1", "Potency": "inconclusive [inhibitor, single point]"}, {"smiles": "O=C(/C(=C/O)N=Nc1ccc(Cl)cc1)c1ccncc1", "Potency": "inconclusive [inhibitor, single point]"}, {"smiles": "COc1cc(Cl)c(C)cc1NC(=O)COC(=O)CCc1nc2ccccc2c(=O)[nH]1", "Potency": "inconclusive [inhibitor, single point]"}, {"smiles": "Cc1c(Cl)cccc1NC(=S)NNc1ncc(C(F)(F)F)cc1Cl", "Potency": "inconclusive [inhibitor, single point]"}, {"smiles": "CN(C)S(=O)(=O)c1ccc2c(c1)N(CC(=O)N1CCN(c3cccc(Cl)c3)CC1)CCS2", "Potency": "inactive"}, {"smiles": "Nc1cccc(C#Cc2ccc3c(c2)C(=O)/C(=C/c2ccsc2)O3)c1", "Potency": "inconclusive [inhibitor, single point]"}, {"smiles": "COc1ccc(Cn2c(SCC(=O)Nc3ccc(OC)cc3)nc3ccccc32)cc1", "Potency": "inconclusive [inhibitor, single point]"}, {"smiles": "CS(=O)(=O)N(CC(=O)Nc1cccc(Cl)c1)c1ccccc1Cl", "Potency": "inconclusive [inhibitor, partial curve, poor fit]"}, {"smiles": "OC(c1cccnc1)c1nc(/C=C/c2ccc(C(F)(F)F)cc2)cs1", "note": "(configuration not stated)", "Potency": "inconclusive [inhibitor, single point]"}, {"smiles": "Cc1cccc(N2CCN(C(=O)c3ccncc3)CC2)c1C", "Potency": "inconclusive [inhibitor, partial curve, poor fit]"}, {"smiles": "CNc1ccc2c3c(cccc13)C(=O)N(C)C2=O", "Potency": "inactive"}, {"smiles": "CCCCOC(=O)C1=C(C)N(C)C(=O)NC1c1cc2c(cc1Br)OCO2", "note": "(configuration not stated)", "Potency": "inconclusive [inhibitor, partial curve, poor fit]"}, {"smiles": "CCCCCCN1CCN(C2CN(Cc3ccc(C)cc3)S(=O)(=O)C2)CC1", "note": "(configuration not stated)", "Potency": "inconclusive [inhibitor, single point]"}, {"smiles": "O=C(CCSc1nnc(-c2ccco2)o1)N1CCOCC1", "activity change, negative = inhibition": "inactive: -16.7% [at 0.307 µM]"}, {"smiles": "N/C(=N\\OC(=O)N1CCOCC1)c1ccc(Br)cc1", "Potency": "inconclusive [inhibitor, single point]"}, {"smiles": "Cc1ccc(S(=O)(=O)n2nc(C)c(S(=O)(=O)N3CCC(C)CC3)c2C)cc1", "Potency": "inactive"}, {"smiles": "CCn1ccc2cc(S(=O)(=O)N3CCC(C(=O)NCc4ccc(OC)cc4)CC3)ccc21", "Potency": "inconclusive [inhibitor, single point]"}, {"smiles": "CCC/C(=N/NC(=O)c1ccccc1Cl)c1ccccc1", "Potency": "inconclusive [inhibitor, partial curve, poor fit]"}, {"smiles": "Cc1ccccc1CN1C(=O)c2ccccc2Sc2ccc(C(=O)OCc3ccco3)cc21", "Potency": "inconclusive [inhibitor, partial curve, poor fit]"}, {"smiles": "CS(=O)(=O)c1ccccc1-c1nnc(-c2ccc(Cl)cc2)o1", "Potency": "inactive"}, {"smiles": "OCCCCC#Cc1c(-c2ccsc2)sc2ccccc12", "Potency": "inconclusive [inhibitor, single point]"}, {"smiles": "Cc1ccc(S(=O)(=O)NN=C2CC3CCC2(C)C3(C)C)cc1", "note": "(configuration not stated)", "Potency": "inconclusive [inhibitor, single point]"}, {"smiles": "O=C(NN=Cc1cc([N+](=O)[O-])ccc1O)c1cccc2ccccc12", "Potency": "inconclusive [inhibitor, partial curve]"}, {"smiles": "Cc1oc(-c2ccc(C(=O)NCCc3ccc(Cl)cc3)cc2)nc1CSc1ccccc1", "Potency": "inactive"}, {"smiles": "Cc1ccc(-c2nc3ncccn3c2NC2CCCCC2)o1", "Potency": "inconclusive [inhibitor, single point]"}, {"smiles": "CCNC(=S)N(Cc1c(C)noc1C)c1ccccc1", "Potency": "inactive"}, {"smiles": "O=C(Cn1cc(SCc2ccccc2)c2ccccc21)N1CCCCCC1", "Potency": "inconclusive [inhibitor, partial curve, poor fit]"}, {"smiles": "COc1ccc(-c2ccc([C@H]3[C@H]4C=CC[C@@H](C)[C@@H]4C(=O)N3Cc3ccccc3)c(F)c2)cc1OC", "Potency": "inconclusive [inhibitor, single point]"}, {"smiles": "O=C(NCCN1CCCCC1)Nc1ccc(Cl)cc1", "Potency": "inconclusive [inhibitor, single point]"}]}]}
